Source: patent publication EP2424865B1 (Boehringer Ingelheim International GmbH, priority 2009, dated 2010)

Key:
11β-HSD1 [1] = target: T1, 11β-HSD1 (Homo sapiens, UniProt P28845); assay: biochemical; settings: for inhibition at 0.1 µM: read-out: Biological Test Example 1 Average % inhibition at 100 nM, at 100 nM
[2] = target: T2, human recombinant cytochrome P450 2C19 (Homo sapiens, UniProt P33261); assay: Biological Test Example 8: CYP2C19 inhibition ([N-methyl-14C]-Diazepam N-demethylation)
[3] = target: human recombinant cytochrome P450 3A4 (Homo sapiens, UniProt P08684)
[4] = target: human recombinant cytochrome P450 2C9 (Homo sapiens, UniProt P11712); assay: Biological Test Example 7: CYP2C9 inhibition ([O-methyl-14C]-Naproxen O-demethylation)
11β-HSD1 [5] = target: T1, 11β-HSD1; assay: biochemical; settings: read-out: Average % control inhibition at 100 nM
[6] = Slurry experiment on the stability of the crystal form (suspension in water, x-ray powder diffraction); type: physicochemical; settings: during the measurement by XRPD (30 minutes)
[7] = target: T2, human recombinant cytochrome P450 2C19
CYP2C19 = CYP2C19 (Homo sapiens, UniProt P33261); assay: Biological Test Example 8: CYP2C19 inhibition ([N-methyl-14C]-Diazepam N-demethylation); settings: human, recombinant CYP2C19, probe [N-methyl-14C]-Diazepam, N-demethylation
CYP2C9 = CYP2C9 (Homo sapiens, UniProt P11712); assay: Biological Test Example 7: CYP2C9 inhibition ([O-methyl-14C]-Naproxen O-demethylation); settings: human, recombinant CYP2C9, probe [O-methyl-14C]-Naproxen, O-demethylation
CYP2C9, sequence (P11712 whole entry): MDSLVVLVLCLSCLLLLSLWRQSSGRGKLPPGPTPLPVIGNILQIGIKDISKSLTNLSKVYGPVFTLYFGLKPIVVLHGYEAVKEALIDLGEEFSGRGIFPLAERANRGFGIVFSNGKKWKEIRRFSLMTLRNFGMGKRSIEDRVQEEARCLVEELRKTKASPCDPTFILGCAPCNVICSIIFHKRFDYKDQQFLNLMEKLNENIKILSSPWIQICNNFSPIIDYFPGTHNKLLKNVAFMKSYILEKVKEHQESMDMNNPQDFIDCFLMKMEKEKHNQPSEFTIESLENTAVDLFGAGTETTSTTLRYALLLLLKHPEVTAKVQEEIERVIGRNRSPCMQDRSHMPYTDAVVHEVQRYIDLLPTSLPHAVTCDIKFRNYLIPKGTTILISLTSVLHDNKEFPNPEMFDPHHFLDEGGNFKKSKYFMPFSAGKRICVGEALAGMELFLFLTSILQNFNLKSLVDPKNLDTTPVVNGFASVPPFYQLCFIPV

T1 sequence (P28845 whole entry): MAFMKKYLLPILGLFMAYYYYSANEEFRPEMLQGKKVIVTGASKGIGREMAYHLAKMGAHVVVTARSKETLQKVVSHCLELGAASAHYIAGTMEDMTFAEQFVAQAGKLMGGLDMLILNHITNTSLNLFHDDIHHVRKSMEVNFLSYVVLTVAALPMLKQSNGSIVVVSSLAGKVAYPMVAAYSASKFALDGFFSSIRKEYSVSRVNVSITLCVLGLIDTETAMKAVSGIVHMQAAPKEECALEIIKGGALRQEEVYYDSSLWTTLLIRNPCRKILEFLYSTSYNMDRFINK
human recombinant cytochrome P450 3A4, sequence (P08684 whole entry): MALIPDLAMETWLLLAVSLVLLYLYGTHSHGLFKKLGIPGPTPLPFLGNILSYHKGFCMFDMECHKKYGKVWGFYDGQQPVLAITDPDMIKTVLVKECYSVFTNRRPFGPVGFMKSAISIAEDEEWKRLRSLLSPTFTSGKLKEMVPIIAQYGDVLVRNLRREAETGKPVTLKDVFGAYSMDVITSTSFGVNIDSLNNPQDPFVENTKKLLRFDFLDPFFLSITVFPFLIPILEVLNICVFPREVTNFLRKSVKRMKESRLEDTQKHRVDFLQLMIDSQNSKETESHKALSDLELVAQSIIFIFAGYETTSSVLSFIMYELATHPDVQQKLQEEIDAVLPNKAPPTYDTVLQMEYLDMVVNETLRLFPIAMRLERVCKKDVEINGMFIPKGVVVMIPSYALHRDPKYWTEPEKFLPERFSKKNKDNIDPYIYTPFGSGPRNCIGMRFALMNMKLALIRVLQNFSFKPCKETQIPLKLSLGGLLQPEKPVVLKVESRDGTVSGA
T2 sequence (P33261 whole entry): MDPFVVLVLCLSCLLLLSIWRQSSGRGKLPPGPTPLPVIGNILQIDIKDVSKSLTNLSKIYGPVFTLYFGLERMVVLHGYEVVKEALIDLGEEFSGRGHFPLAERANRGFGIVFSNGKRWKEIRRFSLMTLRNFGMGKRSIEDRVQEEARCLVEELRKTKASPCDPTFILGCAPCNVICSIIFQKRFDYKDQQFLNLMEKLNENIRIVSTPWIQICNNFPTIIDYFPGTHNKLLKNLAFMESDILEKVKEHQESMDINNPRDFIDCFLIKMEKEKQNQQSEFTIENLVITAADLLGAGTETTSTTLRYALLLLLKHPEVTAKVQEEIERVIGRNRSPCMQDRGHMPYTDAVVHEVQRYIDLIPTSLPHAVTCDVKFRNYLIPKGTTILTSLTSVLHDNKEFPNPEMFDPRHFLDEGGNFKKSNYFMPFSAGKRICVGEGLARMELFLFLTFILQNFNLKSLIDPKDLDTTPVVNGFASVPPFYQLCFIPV
human recombinant cytochrome P450 2C9, sequence (P11712 whole entry): as the sequence (P11712 whole entry) above
CYP2C19, sequence (P33261 whole entry): as the sequence (P33261 whole entry) above

Compound | inhibition at 0.1 µM (11β-HSD1 [1]) [%] | pIC50 [2] | pIC50 [3] | pIC50 [4] | inhibition at 0.1 µM (11β-HSD1 [5]) [%] | other results
C[C@@H](c1ccc(-c2ccn(C3CC3)c(=O)c2)cc1)N1CCC(CC(C)(C)O)(C2CC(F)(F)C2)OC1=O (single isomer, unassigned) [Example 95 Isomer 1] | 12.8 |  |  |  |  | 
C[C@@H](c1ccc(-c2ccn(C3CC3)c(=O)c2)cc1)N1CCC(CC(C)(C)O)(C2CCOCC2)OC1=O (single isomer, unassigned) [Example 91 Isomer 1] | 22.5 |  |  |  |  | pIC50 (11β-HSD1 [1]): < 7.00
COCC(C)Cn1ccc(-c2ccc([C@H](C)N3CC[C@](CC(C)(C)O)(c4ccccc4)OC3=O)cc2)cc1=O (stereo partly drawn) [Example 81, (S)-6-(2-Hydroxy-2-methyl-propyl)-3-((S)-1-{4-[1-(3-methoxy-2-methylpropyl)-2-oxo-1,2-dihydro-pyridin-4-yl]-phenyl}-ethyl)-6-phenyl-[1,3]oxazinan-2-one] |  | 4.92 | < 4.30 | 4.52 | 11 | 
COC[C@]1(c2ccccc2)CCN([C@@H](C)c2ccc(-c3ccn(C)c(=O)c3)cc2)C(=O)O1 [Example 78, (R)-6-Methoxymethyl-3-{(S)-1-[4-(1-methyl-2-oxo-1,2-dihydro-pyridin-4-yl)-phenyl]-ethyl}-6-phenyl-[1,3]oxazinan-2-one] |  | 4.40 | 4.33 | 4.41 | 58 | 
CC(CO)Cn1ccc(-c2ccc([C@H](C)N3CC[C@](CC(C)(C)O)(c4ccccc4)OC3=O)cc2)cc1=O (stereo partly drawn) [Example 82, (S)-6-(2-Hydroxy-2-methyl-propyl)-3-((S)-1-{4-[1-(3-hydroxy-2-methylpropyl)-2-oxo-1,2-dihydro-pyridin-4-yl]-phenyl}-ethyl)-6-phenyl-[1,3]oxazinan-2-one] |  | 4.54 | < 4.30 | 4.32 | -12 | 
C[C@@H](c1ccc(-c2ccn(C3CC3)c(=O)c2)cc1)N1CC[C@](CC(C)(C)O)(c2ccccc2)OC1=O [anhydrous form of Example 75, 3-{(S)-1-[4-(1-Cyclopropyl-2-oxo-1,2-dihydro-pyridin-4-yl)-phenyl]-ethyl}-(S)-6-(2-hydroxy-2-methyl-propyl)-6-phenyl-[1,3]oxazinan-2-one] |  |  |  |  |  | persistence of the anhydrous state [6]: did not remain in the anhydrous state
C[C@@H](c1ccc(-c2ccc(=O)n(C)c2)cc1)N1CC[C@](CC(C)(C)O)(c2ccccc2F)OC1=O [Example 23, (S)-6-(2-fluorophenyl)-6-(2-hydroxy-2-methylpropyl)-3-((S)-1-(4-(1-methyl-6-oxo-1,6-dihydropyridin-3-yl)phenyl)ethyl)-1,3-oxazinan-2-one] |  |  |  |  |  | pIC50 [7]: 4.36
COC(C)(C)Cn1ccc(-c2ccc(C(C)N3CC[C@](CC(C)(C)O)(c4ccccc4)OC3=O)cc2)cc1=O (stereo in doubt) [Example 83, (S)-6-(2-Hydroxy-2-methyl-propyl)-3-(1-{4-[1-(2-methoxy-2-methylpropyl)-2-oxo-1,2-dihydro-pyridin-4-yl]-phenyl}-ethyl)-6-phenyl-[1,3]oxazinan-2-one] |  |  |  |  | 54 | pIC50 (CYP2C19): 5.00; pIC50 (CYP2C9): 4.85
C[C@@H](c1ccc(-c2cccn(C)c2=O)cc1)N1CC[C@](CCCO)(c2ccc(F)cc2)OC1=O [Example 42, (R)-6-(4-fluorophenyl)-6-(3-hydroxypropyl)-3-((S)-1-(4-(1-methyl-2-oxo-1,2-dihydropyridin-3-yl)phenyl)ethyl)-1,3-oxazinan-2-one] | 88.4 |  |  |  |  | pIC50 (11β-HSD1 [1]): 8.17; pIC50 (11β-HSD1 [1]; Biological Test Example 1 IC50 Range, microsomal preparation of human 11β-HSD1, SPA): > 7.00

pIC50: −log10 of the molar value. Like-named read-outs stand apart in the source and are kept apart here.
